The subject of one experiment is HSkMC. The experiment in a line: cytotoxicity call (relative viability < 0.9). To be noted: 10 µM.
The subject of a further experiment is S. aureus RN4220. The experiment in a line: growth inhibition call (relative growth <= 0.2). The note with it: 50 µM.

SMILES strings stand for the structures. This is one part of the list.

With `COCC(=O)N1C[C@]2(CCN(CC2)C(=O)CN2CCOCC2)c2c([nH]c3cc(ccc23)OC)[C@@H]1CO`, in the experiment with HSkMC, the cytotoxicity call is “inactive”. For the same molecule, the growth inhibition call with S. aureus RN4220 is “inactive”.

On to `CC(C)CC#Cc1ccc2c(c1)O[C@@H](CN(C)CC1CCOCC1)[C@@H](C)CN([C@H](C)CO)S2(=O)=O`, for which the cytotoxicity call in the experiment with HSkMC was “inactive”. For the same molecule, the growth inhibition call in the experiment on S. aureus RN4220 was “inactive”.

For `C[C@H](CO)N1C[C@H](C)[C@@H](CN(C)C(=O)Nc2cccc3ccccc23)Oc2ccc(NC(=O)Nc3ccc(C(F)(F)F)cc3)cc2C1=O`, the cytotoxicity call in the experiment on HSkMC is “inactive”. Further, in the experiment with S. aureus RN4220, the growth inhibition call was “inactive”.

In the case of `Cc1ccc(S(=O)(=O)N[C@@H]2CC[C@H](CC(=O)N3CCC(Cc4ccccc4)CC3)O[C@@H]2CO)cc1`, the cytotoxicity call in the experiment with HSkMC was “inactive”. The growth inhibition call with S. aureus RN4220 was “inactive”.

For `O=C(C[C@@H]1CC[C@H]2[C@@H](COC[C@@H](O)CN2C(=O)c2cnccn2)O1)NCc1ccc(Oc2ccccc2)cc1`, the cytotoxicity call in the experiment on HSkMC is “inactive”. Also, in the experiment on S. aureus RN4220, the growth inhibition call was “inactive”.

`COc1cc(C=CC(=O)O)cc(OC)c1O`: the cytotoxicity call with HSkMC is “inactive”. In addition, the growth inhibition call in the experiment on S. aureus RN4220 was “inactive”.

With `Nc1nc(Nc2ccccc2)nc2c1ncn2[C@@H]1O[C@H](CO)[C@@H](O)[C@H]1O`, in the experiment on HSkMC, the cytotoxicity call was “inactive”. In addition, the growth inhibition call with S. aureus RN4220 was “inactive”.

Consider `O=C(O)C[C@@H]1C=C[C@H](NC(=O)c2ccncc2)[C@@H](CO)O1`, for which the cytotoxicity call in the experiment on HSkMC is “inactive”. In addition, the growth inhibition call in the experiment on S. aureus RN4220 is “inactive”.

Take `C[C@@H]1CN([C@H](C)CO)C(=O)Cc2cc(NC(=O)Cn3cnnn3)ccc2O[C@H]1CN(C)Cc1ccccc1`: the cytotoxicity call with HSkMC is “inactive”. In the experiment on S. aureus RN4220, the growth inhibition call is “inactive”.

On to `C[C@H]1CN([C@@H](C)CO)C(=O)c2cc(NC(=O)Cn3cnnn3)ccc2O[C@H]1CN(C)CC1CCCCC1`, for which the cytotoxicity call in the experiment with HSkMC is “inactive”. Moreover, the growth inhibition call with S. aureus RN4220 is “inactive”.

Take `C[C@H]1CN([C@@H](C)CO)C(=O)Cc2cc(NC(=O)Nc3ccc(C(F)(F)F)cc3)ccc2O[C@@H]1CN(C)Cc1ccccc1`: in the experiment with HSkMC, the cytotoxicity call was “inactive”. Further, the growth inhibition call in the experiment on S. aureus RN4220 was “inactive”.

For the molecule `C[C@@H]1CN([C@@H](C)CO)C(=O)c2cc(NC(=O)Nc3ccccc3)ccc2O[C@@H](C)CCCCO[C@H]1CN(C)CC1CCCCC1`, the cytotoxicity call in the experiment on HSkMC is “inactive”. For the same molecule, the growth inhibition call with S. aureus RN4220 was “inactive”.

As for `C[C@@H]1CN([C@@H](C)CO)C(=O)c2cc(NC(=O)Cn3cnnn3)ccc2O[C@@H]1CN(C)Cc1ccc(C(=O)O)cc1`, the cytotoxicity call in the experiment on HSkMC was “inactive”. The growth inhibition call with S. aureus RN4220 was “inactive”.

As to `CC(=O)OC1CC(OC(C)=O)C2(C)C(CC(=O)C3(C)C2CCC2(C)C(c4ccoc4)OC(=O)C4OC423)C1(C)C` (configuration not stated), in the experiment with HSkMC, the cytotoxicity call is “inactive”. The growth inhibition call in the experiment with S. aureus RN4220 is “inactive”.

With `CC(C)NC(=O)N(C)C[C@@H]1Oc2ncc(-c3ccc(C(=O)N(C)C)cc3)cc2C(=O)N([C@H](C)CO)C[C@H]1C`, the cytotoxicity call in the experiment with HSkMC was “inactive”. Besides, the growth inhibition call in the experiment on S. aureus RN4220 is “inactive”.

For the molecule `COc1ccc(NC(=O)N2C[C@H](O)COC[C@@H]3O[C@H](CC(=O)NC4Cc5ccccc5C4)CC[C@H]32)cc1`, in the experiment with HSkMC, the cytotoxicity call is “inactive”. For the same molecule, the growth inhibition call with S. aureus RN4220 is “inactive”.

Take `C[C@@H]1CN([C@@H](C)CO)C(=O)c2cccc(NC(=O)Nc3ccc(C(F)(F)F)cc3)c2O[C@H]1CN(C)Cc1ccc2c(c1)OCO2`: the cytotoxicity call with HSkMC was “active”. Further, the growth inhibition call with S. aureus RN4220 is “inactive”.

As to `C[C@H]1CN([C@@H](C)CO)C(=O)c2cc(C3=CCCC3)cnc2O[C@@H]1CN(C)C(=O)Nc1ccc(C(F)(F)F)cc1`, in the experiment with HSkMC, the cytotoxicity call is “inactive”. The growth inhibition call in the experiment on S. aureus RN4220 is “inactive”.

For `C[C@H]1CN([C@@H](C)CO)C(=O)c2cc(NC(=O)Nc3ccccc3)ccc2O[C@H]1CN(C)C(=O)Nc1cccc2ccccc12`, the cytotoxicity call with HSkMC was “inactive”. Besides, the growth inhibition call in the experiment on S. aureus RN4220 was “inactive”.

Turning to `C[C@@H]1CN([C@@H](C)CO)C(=O)Cc2cc(NC(=O)Nc3ccc(F)cc3)ccc2O[C@@H]1CN(C)C(=O)Nc1ccc(C(F)(F)F)cc1`, in the experiment with HSkMC, the cytotoxicity call was “inactive”. Also, the growth inhibition call with S. aureus RN4220 is “inactive”.

Turning to `NC(=O)CC[C@@H](N)C(=O)O`, the cytotoxicity call in the experiment on HSkMC is “inactive”. Moreover, the growth inhibition call in the experiment on S. aureus RN4220 was “inactive”.

`NS(=O)(=O)c1ccccc1`: the cytotoxicity call in the experiment with HSkMC was “inactive”. In addition, the growth inhibition call with S. aureus RN4220 was “inactive”.

Regarding `C[C@@H]1CCCCO[C@@H](CN(C)C(=O)c2ccccc2)[C@H](C)CN([C@H](C)CO)C(=O)c2cc(NC(=O)Nc3ccc(F)cc3)ccc2O1`, the cytotoxicity call with HSkMC is “inactive”. Further, the growth inhibition call with S. aureus RN4220 was “inactive”.

As to `COc1ccc(CN(C)C[C@@H]2OCCCC[C@H](C)Oc3ccc(NS(=O)(=O)c4ccccc4)cc3C(=O)N([C@H](C)CO)C[C@H]2C)cc1`, the cytotoxicity call in the experiment on HSkMC was “inactive”. Besides, the growth inhibition call in the experiment on S. aureus RN4220 was “inactive”.

Turning to `C[C@@H]1CN([C@@H](C)CO)C(=O)c2cc(NC(=O)Nc3ccc(F)cc3)ccc2O[C@@H](C)CCCCO[C@H]1CN(C)C(=O)CCCN(C)C`, the cytotoxicity call in the experiment with HSkMC was “inactive”. Also, the growth inhibition call in the experiment on S. aureus RN4220 was “inactive”.

For `C[N+](C)(C)CCCCCCNC(=O)[C@@H]1C[C@@H]2C(=O)N[C@@H](CCCC[N+](C)(C)C)C(=O)N2[C@@H]1c1ccc(O)cc1`, the cytotoxicity call in the experiment with HSkMC is “inactive”. Besides, in the experiment on S. aureus RN4220, the growth inhibition call was “active”.

Consider `Cc1noc(C)c1S(=O)(=O)N(C)C[C@H]1Oc2ccc(NS(=O)(=O)c3ccc(F)cc3)cc2CC(=O)N([C@@H](C)CO)C[C@H]1C`, for which, in the experiment with HSkMC, the cytotoxicity call was “inactive”. Besides, the growth inhibition call in the experiment with S. aureus RN4220 was “inactive”.

Regarding `CCOC(=O)CC1(C)NNC(=S)NN1`, in the experiment with HSkMC, the cytotoxicity call was “inactive”. Further, in the experiment with S. aureus RN4220, the growth inhibition call is “inactive”.

`COc1ccc(C#Cc2ccc3c(c2)O[C@@H](CN(C)C(=O)c2ccccn2)[C@H](C)CN([C@@H](C)CO)S3(=O)=O)cc1`: the cytotoxicity call in the experiment with HSkMC is “inactive”. In addition, in the experiment with S. aureus RN4220, the growth inhibition call was “inactive”.

Turning to `Cn1c(=O)c2c(nc(N3CCCCC3)n2CCN)n(C)c1=O`, the cytotoxicity call in the experiment on HSkMC (human skeletal muscle cells) is “inactive”. Also, the growth inhibition call with S. aureus RN4220 was “inactive”.

Consider `C[C@@H]1CCCCO[C@@H](CN(C)C(=O)Nc2ccc(F)cc2)[C@H](C)CN([C@H](C)CO)C(=O)c2cc(NC(=O)NC3CCCCC3)ccc2O1`, for which the cytotoxicity call with HSkMC was “inactive”. In addition, in the experiment with S. aureus RN4220, the growth inhibition call was “inactive”.

Values taken from the antibiotic and cytotoxicity screens of Wong et al. (2023).
